Test results published in publication PMC12040169 (PLOS Biology, 2025).
The list shows a part of the results.

tested on: T1, C. trachomatis L2/434/Bu expressing GFP (CTL2-GFP); set-up: species or system HeLa; C. trachomatis total inclusion area by high-content imaging, normalised to DMSO; conditions: total inclusion area; 28.5 h, 10 µM; inhibitor
T1 construct: L2/434/Bu GFP intracellular growth in HeLa cells
How it was run: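 Following bulk GFP and resorufin fluorescence reads, infected cells were fixed, Hoechst-stained and imaged on a high-content platform. Inclusion total area and number per well served as growth proxies; nuclei counts indicated host viability. MICs were derived as for the fluorescence assay.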

Structure (SMILES)	% of control remaining
Cc1ccc(C(=O)N2CCN(CC(=O)N3CCCC3)CC2)cc1 [CBK039096]	39.0128
Cc1nc2ccccc2c(O)c1CN1CCN(C)CC1 [CBK027922]	66.3986
O=C(COc1ccc(S(=O)(=O)N2CCCCC2)cc1)N1CCN(Cc2ccccc2)CC1 [CBK269144]	106.798
c1cncc(-c2cncc(NCc3ccc4c(c3)OCO4)n2)c1 [CBK065313]	118.253
Cc1nn2c(O)c(CCO)c(C(=O)O)nc2c1-c1ccc(Cl)cc1 [CBK286699]	98.2568
CNc1nc2ccccc2n1CC(=O)c1ccccc1 [CBK262251B]	78.0469
CN(Cc1ccc(F)cc1F)C(=O)Cn1nc2n(c1=O)CCCCC2 [CBK304598]	50.245
O=C(Nc1ccccc1N1CCNCC1)C1(c2ccccc2)CCCCC1 [CBK028281T]	68.6924
CCOc1ccc(C(=O)Nc2ccc(S(=O)(=O)N3CCN(C)CC3)cc2)cc1 [CBK269959]	82.2834
O=C1CCCN1C(=O)CN1CCOCC1 [CBK261467]	84.1168
OC(CN1CCC(O)(Cn2cnc3ccccc32)CC1)c1ccc(-c2ccccc2)cc1 (stereo not shown) [CBK286437]	54.812
O=C(Nc1ccccc1C(F)(F)F)c1ccc(-n2cnnn2)cc1 [CBK300521]	85.4991
O=C(CNC(=O)OCc1ccncc1)NCC(CCCN1CCC(c2ccccc2)CC1)(c1ccccc1)c1ccccc1 [CBK024060A]	70.8738
Cc1ccc(S(=O)(=O)Nc2ccccn2)c(C)c1C [CBK264995]	116.165
N=c1c2c(-c3ccccc3)c(-c3ccccc3)oc2ncn1CCCN1CCOCC1 [CBK268484]	102.619
Cc1nc2c(OCCN3C(=O)c4ccccc4C3=O)cccn2c1N(C)C(=O)C1CCCCC1 [CBK147157]	59.2432
CS(=O)(=O)N1CC2(CCN(CCOCc3ccccc3)CC2)c2ccccc21 [CBK115458T]	102.827
O=C(c1c[nH]c2ccccc12)C(F)(F)C(F)(F)F [CBK007222]	101.767
O=C(CCS(=O)(=O)c1ccccc1)Nc1ccc(N2CCNCC2)c2ccccc12 [CBK028408T]	88.4811
CC(C)N(Cc1nc(-c2ccccc2)no1)C(=O)CCc1ccccc1 [CBK269867]	88.0808
Cc1cc(C(=O)N2CC[C@H]3NC(=O)c4ccccc4OCCCCC[C@H]3C2)no1 [CBK292005]	84.4089
Cc1noc(C)c1CC(=O)NCc1cccc(C#N)c1 [CBK305822]	52.8738
COc1cccc(C(=O)c2snc(Nc3ccc(F)cc3)c2N)c1 [CBK269173]	78.5729
Cn1nc(C2CCN(C(=O)c3cccs3)CC2)c2cccnc21 [CBK284925]	95.6862
Cc1cc(C)c(NC(=O)CSc2nc(C)c(Cc3ccccc3Cl)c(O)n2)c([N+](=O)[O-])c1 [CBK268693]	116.761
O=C(CN1CCOCC1)N1CCC(F)CC1 [CBK200383]	96.2064

Structure (SMILES)	% of control remaining
NC(=O)C1CCN(C(=O)CSc2nc3ccccc3s2)CC1 [CBK293953]	75.6969
Cc1nn(C)cc1CN(C)CC(=O)Nc1nc2c(s1)CC(C)CC2 (stereo not shown) [CBK306669]	32.1041
O=C(Cn1cc(C(=O)Nc2ccc(F)cc2)ccc1=O)Nc1nc2c(s1)CCCCC2 [CBK286080]	90.6015
CC(=O)Nc1c(O)nc(SCC(=O)Nc2ccccc2C(N)=O)[nH]c1=O [CBK268031]	100.513
OC(CNCc1ccc2c(c1)OCO2)COc1ccc(Cl)c(Cl)c1 (stereo not shown) [CBK074649]	90.6086
CCCc1cc(C(=O)N2CCc3sccc3C2C)[nH]n1 (stereo not shown) [CBK283072]	78.7868
OC(c1ccc2c(c1)OCO2)C1CCCCC1N1CCCCCC1 (stereo not shown) [CBK022779C]	21.991
O=C(Cc1coc2ccc3ccccc3c12)NNC(=O)c1ccccc1[N+](=O)[O-] [CBK268763]	102.261
Cc1ccc(C2(O)CC3CCC(C2)N3C(=O)c2ccncc2)cc1 (stereo not shown) [CBK284609]	108.14
CSc1ncc(C(=O)N2CCC(N3CCCC(CO)C3)CC2)c(=O)[nH]1 (stereo not shown) [CBK307338]	45.3248
O=S(=O)(N1CCOCC1)N1CCN(CC(O)COc2ccc3cc(Br)ccc3c2)CC1 (stereo not shown) [CBK268840]	91.0066
CC12CCCN1CCCN2C(=O)c1c[nH]c2ccccc12 (stereo not shown) [CBK169228]	85.7724
Nc1nonc1-n1nnc(C(=O)N/N=C/c2nc3ccccc3[nH]2)c1-c1ccccc1 [CBK262815]	121.343
Cc1ccc(C(=O)NC2CCCCC2)c(N2CCOCC2)n1 [CBK076388]	96.7291
Cn1cccc1C(=O)N1CCC(OCc2cnc(-c3ccc(S(C)(=O)=O)cc3)cn2)CC1 [CBK172007]	92.058
CCN1CC(C(=O)N2CC(O)CC2c2cc(F)ccc2F)CC1=O (stereo not shown) [CBK304031]	31.8181
Cc1cc2ccccc2n2c(=O)n(CCNC(=O)C(C)C)nc12 [CBK282876]	69.3355
CN(C)CCN(CCc1ccccc1)Cc1ccncc1 [CBK283145]	100.293
c1ccc(N2CCN(c3nc4cc5c(cc4s3)OCCO5)CC2)cc1 [CBK287499]	104.741
Cc1c(NC(=O)CN2CCCC(C)C2)ccc2nsnc12 (stereo not shown) [CBK269248]	126.364
Cc1ccc(NC(=O)CC(=O)NCCN2CCOCC2)cc1 [CBK262179]	97.7653
CCNC(=O)c1ccccc1NC(=O)C(C)Oc1ccccc1 (stereo not shown) [CBK269933]	99.5146
CCSc1nc2ccccc2n1CC(=O)O [CBK262059]	102.741
c1ccc(CCN2CCCN(c3ccnc(OCCN4CCOCC4)n3)CC2)nc1 [CBK083813]	98.7363
O=C(O)c1cc(-n2c(S)nnc2-c2ccncc2)ccc1Cl [CBK268989]	90.5718
Nc1ncc2ncn([C@@H]3O[C@H](CO)[C@H](O)C3O)c2n1 (stereo partly shown) [CBK201318]	123.793
